Assay results from paper PMC6919601, “Identification of Plasmodium dipeptidyl aminopeptidase allosteric inhibitors by high throughput screening” (PLoS ONE, 2019).
The whole screen tested about 110,000 compounds, of which about 230 (0.21%) showed an effect of 50% or more. Some of the results follow.

Molecular target: DPAP1 (Plasmodium falciparum, UniProt Q8IIJ9)
Assay: primary screen, percent inhibition; read by cleavage of a fluorogenic dipeptide substrate; higher = more effect of the substance
Design: species or system P. falciparum D10 trophozoite lysates; single well
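Also: 30 min substrate incubation versus DMSO and 10 µM JCP410 controls.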

DPAP1, sequence (Q8IIJ9 whole entry, looked up): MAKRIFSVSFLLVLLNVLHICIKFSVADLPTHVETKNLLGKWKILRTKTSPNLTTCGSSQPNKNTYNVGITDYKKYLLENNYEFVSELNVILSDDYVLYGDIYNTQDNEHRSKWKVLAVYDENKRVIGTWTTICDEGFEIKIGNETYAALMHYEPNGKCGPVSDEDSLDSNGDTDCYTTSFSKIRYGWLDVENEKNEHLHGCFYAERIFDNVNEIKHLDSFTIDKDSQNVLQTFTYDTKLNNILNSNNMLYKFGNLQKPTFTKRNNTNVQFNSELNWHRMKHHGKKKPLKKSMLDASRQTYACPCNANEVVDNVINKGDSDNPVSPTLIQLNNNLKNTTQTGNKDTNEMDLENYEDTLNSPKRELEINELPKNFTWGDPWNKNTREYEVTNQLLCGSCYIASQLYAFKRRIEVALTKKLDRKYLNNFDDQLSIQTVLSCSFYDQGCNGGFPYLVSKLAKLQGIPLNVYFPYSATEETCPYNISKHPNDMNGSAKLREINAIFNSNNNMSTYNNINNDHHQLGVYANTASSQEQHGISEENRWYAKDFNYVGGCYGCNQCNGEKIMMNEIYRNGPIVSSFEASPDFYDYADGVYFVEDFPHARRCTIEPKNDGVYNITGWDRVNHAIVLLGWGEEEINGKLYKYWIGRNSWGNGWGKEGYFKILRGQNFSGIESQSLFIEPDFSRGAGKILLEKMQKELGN

In order of falling “% Inhibition @ 10 uM” value:
1. CCCCCOc1ccc(/C=C/C(=O)Nc2nccs2)cc1OC  23.7%
2. O=C1N(c2ccc(Br)cc2)C2CS(=O)(=O)CC2N1c1ccc(Cl)c(Cl)c1 (stereo not drawn)  14.8%
3. CCCc1cc(=O)oc2cc(OCc3ccc(C(=O)O)cc3)ccc12  7.75%
4. CCOc1ccc(OCc2cccc(C(=O)O)c2)cc1  5.92%
5. CCCNC(=O)NCc1cccn1Cc1ccccc1  5.41%
6. CC(C)c1ccc(S(=O)(=O)/N=C2/C=C(Br)C(=O)c3ccccc32)cc1  5.12%
7. COc1ccc(-c2nnc3n(CCCOC(C)C)c(=O)c4ccccc4n23)c(O)c1  4.86%
8. COc1cccc2c1cc1c(=O)n(CC(=O)NCCCN3CCCC3=O)nc(C)n12  4.84%
9. COc1cccc(OC)c1C(=O)Nc1ccccc1-n1cccc1  4.74%
10. Cc1ccc(C2=NN(C(=O)CCCC(=O)O)C(c3ccco3)C2)cc1 (stereo not drawn)  4.67%
11. CCCCCC(=O)Nc1ccc(NC(=O)C(C)C)c(OC)c1  4.67%
12. CC(C)NC(=O)c1[nH]nc2ccccc12  4.61%
13. Nc1c(-c2nc(-c3cccs3)no2)nnn1-c1ccccc1F  4.48%
14. CC(C)(C)c1ccc(CNCc2ccco2)cc1  4.28%
15. CCOc1ccc([N+]2=C3CCCCCN3C(O)(c3ccc(OC)c(OC)c3)C2)cc1 (stereo not drawn)  3.83%
16. Cc1ccc2nc(NCCC3=CCCCC3)c3nnnn3c2c1  3.8%
17. O=C(Cn1c(=O)sc2ccccc21)Nc1ccc(Cl)cc1Cl  3.68%
18. CCc1ccc(CNC(=O)c2cc(O)nc3ccc(S(=O)(=O)N4CCCCC4C)cc23)cc1 (stereo not drawn)  3.66%
19. CCOc1ccc(CN2CCN(c3ccccc3OC)CC2)cc1  3.16%
20. O=C(Nc1cccc(-c2cn3ccccc3n2)c1)c1ccc(Br)cc1  3.05%
21. COc1cc(/C=C2/NC(=S)NC2=O)ccc1OCCC(C)C  2.92%
22. CCOc1ccc(N2C(=O)CC(NCc3ccccc3C(F)(F)F)C2=O)cc1 (stereo not drawn)  2.82%
23. CC1(C)CC(=O)C2=C(C1)N(Cc1ccccc1)C(N)=C(C#N)C2c1ccc(Cl)cc1 (stereo not drawn)  2.8%
24. CC(CNc1nc2ccccc2n2nnnc12)c1ccccc1 (stereo not drawn)  2.76%
25. Cn1cccc1Cc1nnc(SCC(=O)NCC2CCCO2)n1CCc1ccccc1 (stereo not drawn)  2.74%
26. Cc1c(C)n(C(=O)CSc2ccccn2)c2ccccc12  2.56%
27. Cc1ccc2c(c1)C(=O)c1c(C(=O)O)cccc1-2  2.55%
28. COc1ccccc1NC(=O)C1=C(C)N=C2CCCC(O)=C2C1c1ccc(OC)c(OC)c1 (stereo not drawn)  2.51%
29. CC(C)Oc1ccccc1/C=C1\SC(Nc2ccc(C(=O)O)cc2)=NC1=O  2.49%
30. COc1ccc(/C=C(\C#N)c2nc3ccccc3s2)cc1Br  2.45%
31. Nc1ccc2nc(SCC(=O)c3ccc(F)cc3)sc2c1  2.17%
32. Cc1nn(-c2ccccc2)c2c1N(CC(=O)NC1CCN(Cc3ccccc3)CC1)C(=O)CS2  2.14%
33. COc1ccc(S(=O)(=O)N2CCCN(S(=O)(=O)c3ccc(OC)c(C)c3C)CC2)c(C)c1C  2.05%
34. O=[N+]([O-])c1ccccc1-c1ccc(CN2CCCCCC2)o1  1.9%
35. COc1cccc(NC(=O)CN(c2ccc(Br)cc2)S(C)(=O)=O)c1  1.89%
36. COc1ccc(-c2nc(SCC(=O)NCc3ccco3)c(-c3ccc(Cl)cc3)[nH]2)cc1OC  1.85%
37. CC(C)(C)C(=O)NC(c1ccccc1)c1c(O)ccc2ccccc12 (stereo not drawn)  1.33%
38. CC12CCC3(CO)COC(c4ccccc4O1)C2C3 (stereo not drawn)  1.29%
39. Cc1ccc2c(c1)c1c3n2CCN(Cc2ccccc2)C3CCC1 (stereo not drawn)  1.26%
40. CC1CCCN(Cc2nc3c(c(=O)n(C)c(=O)n3C)n2Cc2ccc(F)cc2)C1 (stereo not drawn)  1.23%
41. CCN(CCO)Cc1cc2cc(Br)ccc2s1  1.03%
42. COC(=O)c1cc(S(=O)(=O)NCc2ccc(F)cc2)cn1C  0.655%
43. Cc1nn(C)cc1CN(C)C(=O)c1cc2nc(-c3ccco3)cc(C(F)(F)F)n2n1  0.64%
44. Cc1ncc(CO)c(/C=N/NC(N)=S)c1O  0.561%
45. O=C1CN(S(=O)(=O)CCOc2ccccc2)CC(=O)N1CCc1ccccc1  0.0345%
46. COc1cccc2cc(C(=O)NC(C)c3ccc(-n4ccnc4)cc3)c(=O)oc12 (stereo not drawn)  -0.0678%
47. Cc1ccc2[nH]c(C)c(/C=c3\sc4nc5ccccc5n4c3=O)c2c1  -0.178%
48. CCOc1cc(CNc2cc(C)ccc2C)ccc1OC  -0.446%
49. O=C1N=C(NS(=O)(=O)c2ccccc2)S/C1=C/c1ccco1  -0.467%
50. CCNC(=O)c1ccc2c(c1)c(C)c(C)n2CC  -0.658%
51. Cc1cc(C)n2nc(NCc3ccc(F)cc3)nc2n1  -0.671%
52. Cc1cc(C)n2nc(NCc3ccccc3C)nc2n1  -0.671%
53. CCOC(=O)c1c(C)[nH]c(NC(=O)NCc2cccnc2)c1C  -0.671%
54. N=C1N=C(Nc2cccc(C(F)(F)F)c2)c2ccccc21  -0.68%
55. CCC(C)c1ccc(-c2csc(N)n2)cc1 (stereo not drawn)  -0.865%
56. Cn1c(=O)n(Cc2ccco2)c(=O)c2sc3ccccc3c21  -1.01%
57. COc1ccc(C2c3ccc4c(OC)cccc4c3Oc3ncn4nc(-c5ccncc5)nc4c32)cc1 (stereo not drawn)  -1.05%
58. CC1=C(c2cccc(Br)c2)S(=O)(=O)N=C1Nc1ccc(Br)cn1  -1.08%
59. CN1CCN(CC(=O)Nc2cc(N(C)C)nc3ccccc23)CC1  -1.1%
60. CCc1nc(NC(=O)Cc2csc(C)n2)sc1C(=O)OC  -1.11%
61. O=C(Cn1nc(C(F)(F)F)c2c1CCCC2)NCc1ccc(Cl)cc1  -1.18%
62. N#Cc1nc(COc2ccc(Br)cc2)oc1NCCN1CCOCC1  -1.38%
63. CN(Cc1ccccc1)Cc1c[nH]c2ccccc12  -1.41%
64. CC1=C(C(=O)OCC(Cl)(Cl)Cl)C(c2ccc(Cl)cc2Cl)NC(=O)N1 (stereo not drawn)  -1.56%
65. CN(C)CCN1CC2CCc3[nH]c4ccccc4c3C2C1 (stereo not drawn)  -1.66%
66. COc1ccc(Br)cc1CNC(=O)c1cc(CC(C)C)on1  -1.7%
67. COc1ccc(-c2cn3ccccc3c2S(=O)(=O)c2ccc(F)cc2)cc1OC  -1.71%
68. CCn1c2ccccc2c2nnc(N3CCC(Cc4ccccc4)CC3)nc21  -1.87%
69. CC(C)c1ccc(/C=C/C(=O)Nc2ccccc2Br)cc1  -2%
70. Cc1nn(C)cc1C1C2=C(CC(C)(C)CC2=O)N(c2ccccc2)C2=C1C(=O)CC(C)(C)C2  -2.28%
71. CCCN(CCC)S(=O)(=O)c1ccc(/C(O)=C(\C#N)c2nc3ccccc3[nH]2)cc1  -2.6%
72. CS(=O)c1ccc2c(c1)C(N1CCN(CCO)CC1)Cc1ccccc1S2 (stereo not drawn)  -2.8%
73. O=C(Nc1nnc(C2CCCC2)s1)C(=O)c1c[nH]c2ccccc12  -2.84%
74. COc1ccc(/C=C(/NC(=O)c2ccco2)C(=O)Nc2ccc(C(=O)O)cc2)cc1  -2.87%
75. CC1=Nc2cc(C)ccc2NC(c2ccccc2)=C1  -2.91%
76. O=C(COc1ccc(Cl)cc1Cl)Nc1cccnc1  -3.24%
77. C=CCn1c(SCC(=O)Nc2sc3c(c2C#N)CCC3)nc2sc3c(c2c1=O)CCC3  -3.41%
78. Cc1cccc(Oc2nc3c(c(=O)n(Cc4ccccc4F)c(=O)n3C)n2C)c1  -3.5%
79. O=[N+]([O-])c1ccc(Nc2nc(-c3ccccc3)cc(-c3ccc(F)cc3)n2)cc1  -3.74%
80. CCOc1cccc(=O)c2c(C)n(CC3CCCO3)c(C)c12 (stereo not drawn)  -3.75%
81. N#CCNC(=O)[C@H](Cc1ccccc1)NC(=O)N1CCN(Cc2ccccc2)CC1  -3.97%
82. c1ccc2c(OCCN3CCOCC3)cccc2c1  -4.01%
83. OC(COc1ccc(F)cc1)CN(Cc1ccccc1)CC(O)COc1ccc(F)cc1 (stereo not drawn)  -4.02%
84. CCOc1ccc(Br)cc1/C=C/c1nc(O)c([N+](=O)[O-])c(O)n1  -4.21%
85. CCOC(=O)/C=C(\C)N1N=C2c3cc(OC)ccc3CCC2C1c1ccc(OC)cc1 (stereo not drawn)  -4.49%
86. COc1ccc(C2N3CCCN23)cc1 (stereo not drawn)  -4.74%
87. Cc1c(C(=O)NCCCN2CCOCC2)sc2nc3n(c(=O)c12)CCCCC3  -4.74%
88. O=C(COc1ccc2ccccc2c1)Nc1ccc(Cl)cn1  -4.75%
89. O=C(Nc1c(C(=O)c2ccc(F)cc2)oc2ccccc12)c1ccccc1  -4.78%
90. CCOc1cc(C)c(C(C)C)cc1S(=O)(=O)NCc1cccnc1  -4.86%
91. CCn1ncc(Br)c1C(=O)Nc1cc(C)cc(C)c1  -4.89%
92. COc1ccc(CNCc2ccc(OC)c(OC)c2)cc1OC  -5.04%
93. Cc1cc(OCC(=O)Nc2cc(Cl)ccc2Cl)ccc1Br  -5.11%
94. O=C(Cc1coc2ccc3ccccc3c12)N1CCc2ccccc2C1  -5.14%
95. c1ccc(-c2cc(-c3ccco3)no2)cc1  -5.23%
96. COc1ccc(CN2CCN(c3ccc(Cl)cc3)CC2)cc1Br  -5.57%
97. COc1ccc(/C=C2\N=C(c3ccccc3Cl)OC2=O)cc1OC  -6.05%
98. Cc1nc2cc(NC(=O)NCc3ccco3)ccc2n1C  -8.92%
99. COc1cccc(CN2CCN(C(=O)c3ccc(F)cc3)CC2)c1OC  -8.95%
100. CC(=O)N(Cc1ccc(S(N)(=O)=O)cc1)C1CC(=O)N(c2ccccc2)C1=O (stereo not drawn)  -9.07%
101. COC(=O)c1ccc(-c2nc(-c3ccncc3)no2)cc1  -10%
102. Clc1cc2c(cc1CSc1nc3cccnc3[nH]1)OCO2  -13%
